In the supplement of paper PMC12230231:
± gives the standard deviation of the averaged measurements. Restriction of a single-cycle SIVsab GFP reporter by TRIM5α v1-loop variants in CRFK cells. Human variants: read share among cells still uninfected after two challenges over input, higher = gained restriction. Rhesus variants: share among infected cells over input, higher = lost restriction. Reporter dose not given per row. No active / inactive call per row; the paper calls a change when both replicates lie above its controls (mean + 2 SD of stop or wild-type variants, or the top frameshift score). Residues outside the varied loop are taken from Swiss-Prot. The paper reads the human single-substitution scores as noise; they and the rhesus combinations repeat poorly (rank correlation 0.3 to 0.4), indel scores repeat only for the top variants, rhesus substitutions well (0.9).

Tested on: SIVsab (simian immunodeficiency virus of sabaeus monkeys), single-cycle GFP reporter, in CRFK cells
Assay: enrichment among infected cells over input (fold); higher = weaker restriction
Conditions: library: human / rhesus combinations
Method: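 Pools of CRFK cells expressing variants of the TRIM5α v1 loop were challenged with the single-cycle reporter, sorted by GFP and sequenced; mean of two replicates.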

Sequence | enrichment
MASGILLNVKEEVTCPICLELLTEPLSLHCGHSFCQACITANHKKSMLYKEGERSCPVCRISYQPENIQPNRHVANIVEKLREVKLSPEEGQKVDHCARHGEKLLLFCQEDSKVICWLCERSQEHRGHHTFLMEEVAQEYHVKLQTALEMLRQKQQEAEKLEADIREEKASWKIQIDYDKTNVSADFEQLREILDWEESNELQNLEKEEEDILKSLTKSETEMVQQTQYMRELISELEHRLQGSMMDLLQGVDGIIKRIENMTLKKPKTFHKNQRRVFRAPDLKGMLDMFRELTDARRYWVDVTLAPNNISHAVIAEDKRQVSSRNPQIMYGAPGTLYTFPSLVNFNYCTGVLGSQSITSGKHYWEVDVSKKSAWILGVCAGFQSDAMYNIEQNENYQPKYGYWVIGLQEGVKYSVFQDGSSHTPFAPFIVPLSVIICPDRVGVFVDYEACTVSFFNITNHGFLIYKFSQCSFSKPVFPYLNPRKCTVPMTLCSPSS [rhesus TRIM5α, 332-344 = GAPGTLYTFPSLV] | 2.26 ± 0.2
MASGILLNVKEEVTCPICLELLTEPLSLHCGHSFCQACITANHKKSMLYKEGERSCPVCRISYQPENIQPNRHVANIVEKLREVKLSPEEGQKVDHCARHGEKLLLFCQEDSKVICWLCERSQEHRGHHTFLMEEVAQEYHVKLQTALEMLRQKQQEAEKLEADIREEKASWKIQIDYDKTNVSADFEQLREILDWEESNELQNLEKEEEDILKSLTKSETEMVQQTQYMRELISELEHRLQGSMMDLLQGVDGIIKRIENMTLKKPKTFHKNQRRVFRAPDLKGMLDMFRELTDARRYWVDVTLAPNNISHAVIAEDKRQVSSRNPQIMYGARGTLYTFQTFVNFNYCTGVLGSQSITSGKHYWEVDVSKKSAWILGVCAGFQSDAMYNIEQNENYQPKYGYWVIGLQEGVKYSVFQDGSSHTPFAPFIVPLSVIICPDRVGVFVDYEACTVSFFNITNHGFLIYKFSQCSFSKPVFPYLNPRKCTVPMTLCSPSS [rhesus TRIM5α, 332-344 = GARGTLYTFQTFV] | 0.978 ± 0.51
MASGILLNVKEEVTCPICLELLTEPLSLHCGHSFCQACITANHKKSMLYKEGERSCPVCRISYQPENIQPNRHVANIVEKLREVKLSPEEGQKVDHCARHGEKLLLFCQEDSKVICWLCERSQEHRGHHTFLMEEVAQEYHVKLQTALEMLRQKQQEAEKLEADIREEKASWKIQIDYDKTNVSADFEQLREILDWEESNELQNLEKEEEDILKSLTKSETEMVQQTQYMRELISELEHRLQGSMMDLLQGVDGIIKRIENMTLKKPKTFHKNQRRVFRAPDLKGMLDMFRELTDARRYWVDVTLAPNNISHAVIAEDKRQVSSRNPQIMYGARGTRYTFQSFTNFNYCTGVLGSQSITSGKHYWEVDVSKKSAWILGVCAGFQSDAMYNIEQNENYQPKYGYWVIGLQEGVKYSVFQDGSSHTPFAPFIVPLSVIICPDRVGVFVDYEACTVSFFNITNHGFLIYKFSQCSFSKPVFPYLNPRKCTVPMTLCSPSS [rhesus TRIM5α, 332-344 = GARGTRYTFQSFT] | 1.5 ± 0.042
MASGILLNVKEEVTCPICLELLTEPLSLHCGHSFCQACITANHKKSMLYKEGERSCPVCRISYQPENIQPNRHVANIVEKLREVKLSPEEGQKVDHCARHGEKLLLFCQEDSKVICWLCERSQEHRGHHTFLMEEVAQEYHVKLQTALEMLRQKQQEAEKLEADIREEKASWKIQIDYDKTNVSADFEQLREILDWEESNELQNLEKEEEDILKSLTKSETEMVQQTQYMRELISELEHRLQGSMMDLLQGVDGIIKRIENMTLKKPKTFHKNQRRVFRAPDLKGMLDMFRELTDARRYWVDVTLAPNNISHAVIAEDKRQVSSRNPQIMYGAPGTLYTFQTFTNFNYCTGVLGSQSITSGKHYWEVDVSKKSAWILGVCAGFQSDAMYNIEQNENYQPKYGYWVIGLQEGVKYSVFQDGSSHTPFAPFIVPLSVIICPDRVGVFVDYEACTVSFFNITNHGFLIYKFSQCSFSKPVFPYLNPRKCTVPMTLCSPSS [rhesus TRIM5α, 332-344 = GAPGTLYTFQTFT] | 0.855 ± 0.43
MASGILLNVKEEVTCPICLELLTEPLSLHCGHSFCQACITANHKKSMLYKEGERSCPVCRISYQPENIQPNRHVANIVEKLREVKLSPEEGQKVDHCARHGEKLLLFCQEDSKVICWLCERSQEHRGHHTFLMEEVAQEYHVKLQTALEMLRQKQQEAEKLEADIREEKASWKIQIDYDKTNVSADFEQLREILDWEESNELQNLEKEEEDILKSLTKSETEMVQQTQYMRELISELEHRLQGSMMDLLQGVDGIIKRIENMTLKKPKTFHKNQRRVFRAPDLKGMLDMFRELTDARRYWVDVTLAPNNISHAVIAEDKRQVSSRNPQIMYGARGTLFTFPSFTNFNYCTGVLGSQSITSGKHYWEVDVSKKSAWILGVCAGFQSDAMYNIEQNENYQPKYGYWVIGLQEGVKYSVFQDGSSHTPFAPFIVPLSVIICPDRVGVFVDYEACTVSFFNITNHGFLIYKFSQCSFSKPVFPYLNPRKCTVPMTLCSPSS [rhesus TRIM5α, 332-344 = GARGTLFTFPSFT] | 0.048 ± 0.036
MASGILLNVKEEVTCPICLELLTEPLSLHCGHSFCQACITANHKKSMLYKEGERSCPVCRISYQPENIQPNRHVANIVEKLREVKLSPEEGQKVDHCARHGEKLLLFCQEDSKVICWLCERSQEHRGHHTFLMEEVAQEYHVKLQTALEMLRQKQQEAEKLEADIREEKASWKIQIDYDKTNVSADFEQLREILDWEESNELQNLEKEEEDILKSLTKSETEMVQQTQYMRELISELEHRLQGSMMDLLQGVDGIIKRIENMTLKKPKTFHKNQRRVFRAPDLKGMLDMFRELTDARRYWVDVTLAPNNISHAVIAEDKRQVSSRNPQIMYQAPGTRFTFQSLVNFNYCTGVLGSQSITSGKHYWEVDVSKKSAWILGVCAGFQSDAMYNIEQNENYQPKYGYWVIGLQEGVKYSVFQDGSSHTPFAPFIVPLSVIICPDRVGVFVDYEACTVSFFNITNHGFLIYKFSQCSFSKPVFPYLNPRKCTVPMTLCSPSS [rhesus TRIM5α, 332-344 = QAPGTRFTFQSLV] | 1.31 ± 0.19
MASGILLNVKEEVTCPICLELLTEPLSLHCGHSFCQACITANHKKSMLYKEGERSCPVCRISYQPENIQPNRHVANIVEKLREVKLSPEEGQKVDHCARHGEKLLLFCQEDSKVICWLCERSQEHRGHHTFLMEEVAQEYHVKLQTALEMLRQKQQEAEKLEADIREEKASWKIQIDYDKTNVSADFEQLREILDWEESNELQNLEKEEEDILKSLTKSETEMVQQTQYMRELISELEHRLQGSMMDLLQGVDGIIKRIENMTLKKPKTFHKNQRRVFRAPDLKGMLDMFRELTDARRYWVDVTLAPNNISHAVIAEDKRQVSSRNPQIMYQARGTRYTFPSLVNFNYCTGVLGSQSITSGKHYWEVDVSKKSAWILGVCAGFQSDAMYNIEQNENYQPKYGYWVIGLQEGVKYSVFQDGSSHTPFAPFIVPLSVIICPDRVGVFVDYEACTVSFFNITNHGFLIYKFSQCSFSKPVFPYLNPRKCTVPMTLCSPSS [rhesus TRIM5α, 332-344 = QARGTRYTFPSLV] | 1.11 ± 0.81
MASGILLNVKEEVTCPICLELLTEPLSLHCGHSFCQACITANHKKSMLYKEGERSCPVCRISYQPENIQPNRHVANIVEKLREVKLSPEEGQKVDHCARHGEKLLLFCQEDSKVICWLCERSQEHRGHHTFLMEEVAQEYHVKLQTALEMLRQKQQEAEKLEADIREEKASWKIQIDYDKTNVSADFEQLREILDWEESNELQNLEKEEEDILKSLTKSETEMVQQTQYMRELISELEHRLQGSMMDLLQGVDGIIKRIENMTLKKPKTFHKNQRRVFRAPDLKGMLDMFRELTDARRYWVDVTLAPNNISHAVIAEDKRQVSSRNPQIMYQARGTRFTFPTFTNFNYCTGVLGSQSITSGKHYWEVDVSKKSAWILGVCAGFQSDAMYNIEQNENYQPKYGYWVIGLQEGVKYSVFQDGSSHTPFAPFIVPLSVIICPDRVGVFVDYEACTVSFFNITNHGFLIYKFSQCSFSKPVFPYLNPRKCTVPMTLCSPSS [rhesus TRIM5α, 332-344 = QARGTRFTFPTFT] | 1.05 ± 0.73
MASGILLNVKEEVTCPICLELLTEPLSLHCGHSFCQACITANHKKSMLYKEGERSCPVCRISYQPENIQPNRHVANIVEKLREVKLSPEEGQKVDHCARHGEKLLLFCQEDSKVICWLCERSQEHRGHHTFLMEEVAQEYHVKLQTALEMLRQKQQEAEKLEADIREEKASWKIQIDYDKTNVSADFEQLREILDWEESNELQNLEKEEEDILKSLTKSETEMVQQTQYMRELISELEHRLQGSMMDLLQGVDGIIKRIENMTLKKPKTFHKNQRRVFRAPDLKGMLDMFRELTDARRYWVDVTLAPNNISHAVIAEDKRQVSSRNPQIMYGAPGTLFPSFTNFNYCTGVLGSQSITSGKHYWEVDVSKKSAWILGVCAGFQSDAMYNIEQNENYQPKYGYWVIGLQEGVKYSVFQDGSSHTPFAPFIVPLSVIICPDRVGVFVDYEACTVSFFNITNHGFLIYKFSQCSFSKPVFPYLNPRKCTVPMTLCSPSS [rhesus TRIM5α, 332-344 = GAPGTLFPSFT] | 2.27 ± 1.8
MASGILLNVKEEVTCPICLELLTEPLSLHCGHSFCQACITANHKKSMLYKEGERSCPVCRISYQPENIQPNRHVANIVEKLREVKLSPEEGQKVDHCARHGEKLLLFCQEDSKVICWLCERSQEHRGHHTFLMEEVAQEYHVKLQTALEMLRQKQQEAEKLEADIREEKASWKIQIDYDKTNVSADFEQLREILDWEESNELQNLEKEEEDILKSLTKSETEMVQQTQYMRELISELEHRLQGSMMDLLQGVDGIIKRIENMTLKKPKTFHKNQRRVFRAPDLKGMLDMFRELTDARRYWVDVTLAPNNISHAVIAEDKRQVSSRNPQIMYGAPGTRYTFPTFTNFNYCTGVLGSQSITSGKHYWEVDVSKKSAWILGVCAGFQSDAMYNIEQNENYQPKYGYWVIGLQEGVKYSVFQDGSSHTPFAPFIVPLSVIICPDRVGVFVDYEACTVSFFNITNHGFLIYKFSQCSFSKPVFPYLNPRKCTVPMTLCSPSS [rhesus TRIM5α, 332-344 = GAPGTRYTFPTFT] | 1.03 ± 0.37
MASGILLNVKEEVTCPICLELLTEPLSLHCGHSFCQACITANHKKSMLYKEGERSCPVCRISYQPENIQPNRHVANIVEKLREVKLSPEEGQKVDHCARHGEKLLLFCQEDSKVICWLCERSQEHRGHHTFLMEEVAQEYHVKLQTALEMLRQKQQEAEKLEADIREEKASWKIQIDYDKTNVSADFEQLREILDWEESNELQNLEKEEEDILKSLTKSETEMVQQTQYMRELISELEHRLQGSMMDLLQGVDGIIKRIENMTLKKPKTFHKNQRRVFRAPDLKGMLDMFRELTDARRYWVDVTLAPNNISHAVIAEDKRQVSSRNPQIMYQARGTLYTFQSFVNFNYCTGVLGSQSITSGKHYWEVDVSKKSAWILGVCAGFQSDAMYNIEQNENYQPKYGYWVIGLQEGVKYSVFQDGSSHTPFAPFIVPLSVIICPDRVGVFVDYEACTVSFFNITNHGFLIYKFSQCSFSKPVFPYLNPRKCTVPMTLCSPSS [rhesus TRIM5α, 332-344 = QARGTLYTFQSFV] | 0.521 ± 0.28
MASGILLNVKEEVTCPICLELLTEPLSLHCGHSFCQACITANHKKSMLYKEGERSCPVCRISYQPENIQPNRHVANIVEKLREVKLSPEEGQKVDHCARHGEKLLLFCQEDSKVICWLCERSQEHRGHHTFLMEEVAQEYHVKLQTALEMLRQKQQEAEKLEADIREEKASWKIQIDYDKTNVSADFEQLREILDWEESNELQNLEKEEEDILKSLTKSETEMVQQTQYMRELISELEHRLQGSMMDLLQGVDGIIKRIENMTLKKPKTFHKNQRRVFRAPDLKGMLDMFRELTDARRYWVDVTLAPNNISHAVIAEDKRQVSSRNPQIMYGARGTRYTFPTFTNFNYCTGVLGSQSITSGKHYWEVDVSKKSAWILGVCAGFQSDAMYNIEQNENYQPKYGYWVIGLQEGVKYSVFQDGSSHTPFAPFIVPLSVIICPDRVGVFVDYEACTVSFFNITNHGFLIYKFSQCSFSKPVFPYLNPRKCTVPMTLCSPSS [rhesus TRIM5α, 332-344 = GARGTRYTFPTFT] | 1.36 ± 0.12
